# In the supplement of paper PMC8728848:
# This is one part of the list.
# Columns and labels:
# Assay in all cases: glycan array binding signal (z-score within array); higher = stronger binding
# Settings in all cases: glycan notation: IUPAC condensed, linker removed
# Fuc(a1-2)Gal = target: Fuc(a1-2)Gal
# Method in brief: (§1)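 The binding signal is a Z-score computed within each array and averaged over linkers. Arrays of the same protein sequence at different concentrations or buffers were also averaged together. Data originate from 3228 arrays in the Consortium for Functional Glycomics database, kept only where the protein sequence was available.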
# Fuc(a1-2)Gal(b1-3)GalNAc = target: Fuc(a1-2)Gal(b1-3)GalNAc
# Method in brief: as §1
# [1] = target: Fuc(a1-2)Gal(b1-3)GalNAc(a1-3)[Fuc(a1-2)]Gal(b1-4)Glc
# Method in brief: as §1
# [2] = target: Fuc(a1-2)Gal(b1-3)GalNAc(a1-3)[Fuc(a1-2)]Gal(b1-4)GlcNAc
# Method in brief: as §1
# [3] = target: Fuc(a1-2)Gal(b1-3)GalNAc(b1-3)Gal
# Method in brief: as §1
# [4] = target: Fuc(a1-2)Gal(b1-3)GalNAc(b1-3)Gal(a1-4)Gal(b1-4)Glc
# Method in brief: as §1
# [5] = target: Fuc(a1-2)Gal(b1-3)GalNAc(b1-4)[Neu5Ac(a2-3)]Gal(b1-4)Glc
# Method in brief: as §1
# Fuc(a1-2)Gal(b1-3)GlcNAc = target: Fuc(a1-2)Gal(b1-3)GlcNAc
# Method in brief: as §1
# [6] = target: Fuc(a1-2)Gal(b1-3)GlcNAc(b1-2)Man(a1-3)[Fuc(a1-2)Gal(b1-3)GlcNAc(b1-2)Man(a1-6)]Man(b1-4)GlcNAc(b1-4)GlcNAc
# Method in brief: as §1
# [7] = target: Fuc(a1-2)Gal(b1-3)GlcNAc(b1-2)Man(a1-3)[Fuc(a1-2)Gal(b1-3)GlcNAc(b1-2)Man(a1-6)]Man(b1-4)GlcNAc(b1-4)[Fuc(a1-6)]GlcNAc
# Method in brief: as §1
# [8] = target: Fuc(a1-2)Gal(b1-3)GlcNAc(b1-3)Gal(b1-4)Glc
# Method in brief: as §1
# [9] = target: Fuc(a1-2)Gal(b1-3)GlcNAc(b1-3)GalNAc
# Method in brief: as §1
# [10] = target: Fuc(a1-2)Gal(b1-3)GlcNAc(b1-3)[Fuc(a1-2)Gal(b1-3)GlcNAc(b1-6)]GalNAc
# Method in brief: as §1
# [11] = target: Fuc(a1-2)Gal(b1-3)GlcNAc(b1-3)[Gal(b1-4)GlcNAc(b1-6)]Gal(b1-4)Glc
# Method in brief: as §1
# [12] = target: Fuc(a1-2)Gal(b1-3)GlcNAc(b1-3)[Neu5Ac(a2-6)Gal(b1-4)GlcNAc(b1-6)]Gal(b1-4)Glc
# Method in brief: as §1
# [13] = target: Fuc(a1-2)Gal(b1-3)GlcNAc6S
# Method in brief: as §1
# [14] = target: Fuc(a1-2)Gal(b1-3)[Fuc(a1-4)]GlcNAc
# Method in brief: as §1
# [15] = target: Fuc(a1-2)Gal(b1-3)[Fuc(a1-4)]GlcNAc(b1-2)Man(a1-3)[Fuc(a1-2)Gal(b1-3)[Fuc(a1-4)]GlcNAc(b1-2)Man(a1-3)]Man(b1-4)GlcNAc(b1-4)GlcNAc
# Method in brief: as §1
# [16] = target: Fuc(a1-2)Gal(b1-3)[Fuc(a1-4)]GlcNAc(b1-2)Man(a1-3)[Fuc(a1-2)Gal(b1-3)[Fuc(a1-4)]GlcNAc(b1-2)Man(a1-6)]Man(b1-4)GlcNAc(b1-4)[Fuc(a1-6)]GlcNAc(b1-4)[Fuc(a1-6)]GlcNAc
# Method in brief: as §1
# [17] = target: Fuc(a1-2)Gal(b1-3)[Fuc(a1-4)]GlcNAc(b1-3)[Fuc(a1-3)[Gal(b1-4)]GlcNAc(b1-6)]Gal(b1-4)Glc
# Method in brief: as §1
# [18] = target: Fuc(a1-2)Gal(b1-3)[Fuc(a1-4)]GlcNAc(b1-3)[Gal(b1-4)GlcNAc(b1-6)]Gal(b1-4)Glc
# Method in brief: as §1
# [19] = target: Fuc(a1-2)Gal(b1-4)Fuc(a1-3)]GlcNAc(b1-2)Man(a1-3)[Fuc(a1-2)Gal(b1-4)[Fuc(a1-3)]GlcNAc(b1-2)Man(a1-6)]Man(b1-4)GlcNAc(b1-4)GlcNAc
# Method in brief: as §1
# Fuc(a1-2)Gal(b1-4)Glc = target: Fuc(a1-2)Gal(b1-4)Glc
# Method in brief: as §1
# Fuc(a1-2)Gal(b1-4)Glc6S = target: Fuc(a1-2)Gal(b1-4)Glc6S
# Method in brief: as §1
# Fuc(a1-2)Gal(b1-4)GlcNAc = target: Fuc(a1-2)Gal(b1-4)GlcNAc
# Method in brief: as §1
# [20] = target: Fuc(a1-2)Gal(b1-4)GlcNAc(b1-2)Man
# Method in brief: as §1
# [21] = target: Fuc(a1-2)Gal(b1-4)GlcNAc(b1-2)Man(a1-3)[Fuc(a1-2)Gal(b1-4)GlcNAc(b1-2)Man(a1-6)]Man(b1-4)GlcNAc(b1-4)GlcNAc
# Method in brief: as §1
# [22] = target: Fuc(a1-2)Gal(b1-4)GlcNAc(b1-2)Man(a1-3)[Fuc(a1-2)Gal(b1-4)GlcNAc(b1-2)Man(a1-6)]Man(b1-4)GlcNAc(b1-4)[Fuc(a1-6)]GlcNAc
# Method in brief: as §1
# [23] = target: Fuc(a1-2)Gal(b1-4)GlcNAc(b1-2)[Fuc(a1-2)Gal(b1-4)GlcNAc(b1-4)]Man(a1-3)[Fuc(a1-2)Gal(b1-4)GlcNAc(b1-2)Man(a1-6)]Man(b1-4)GlcNAc(b1-4)GlcNAc
# Method in brief: as §1
# [24] = target: Fuc(a1-2)Gal(b1-4)GlcNAc(b1-3)Gal(b1-4)GlcNAc
# Method in brief: as §1
# [25] = target: Fuc(a1-2)Gal(b1-4)GlcNAc(b1-3)Gal(b1-4)GlcNAc(b1-2)Man(a1-3)[Fuc(a1-2)Gal(b1-4)GlcNAc(b1-3)Gal(b1-4)GlcNAc(b1-2)Man(a1-6)]Man(b1-4)GlcNAc(b1-4)GlcNAc
# Method in brief: as §1
# [26] = target: Fuc(a1-2)Gal(b1-4)GlcNAc(b1-3)Gal(b1-4)GlcNAc(b1-3)Gal(b1-4)GlcNAc
# Method in brief: as §1
# [27] = target: Fuc(a1-2)Gal(b1-4)GlcNAc(b1-3)GalNAc
# Method in brief: as §1
# [28] = target: Fuc(a1-2)Gal(b1-4)GlcNAc(b1-3)[Fuc(a1-2)Gal(b1-4)GlcNAc(b1-6)]GalNAc
# Method in brief: as §1
# [29] = target: Fuc(a1-2)Gal(b1-4)GlcNAc(b1-3)[Fuc(a1-3)[Gal(b1-4)]GlcNAc(b1-6)]Gal(b1-4)Glc
# Method in brief: as §1
# [30] = target: Fuc(a1-2)Gal(b1-4)GlcNAc(b1-6)GalNAc
# Method in brief: as §1
# [31] = target: Fuc(a1-2)Gal(b1-4)GlcNAc6S
# Method in brief: as §1
# [32] = target: Fuc(a1-2)Gal(b1-4)[Fuc(a1-3)]GlcNAc
# Method in brief: as §1
# [33] = target: Fuc(a1-2)Gal(b1-4)[Fuc(a1-3)]GlcNAc(b1-2)Man(a1-3)[Fuc(a1-2)Gal(b1-4)[Fuc(a1-3)]GlcNAc(b1-2)Man(a1-6)]Man(b1-4)GlcNAc(b1-4)[Fuc(a1-6)]GlcNAc
# Method in brief: as §1
# [34] = target: Fuc(a1-2)Gal(b1-4)[Fuc(a1-3)]GlcNAc(b1-2)[Fuc(a1-2)Gal(b1-4)[Fuc(a1-3)]GlcNAc(b1-4)]Man(a1-3)[Fuc(a1-2)Gal(b1-4)[Fuc(a1-3)]GlcNAc(b1-2)Man(a1-6)]Man(b1-4)GlcNAc(b1-4)GlcNAc
# Method in brief: as §1
# [35] = target: Fuc(a1-2)Gal(b1-4)[Fuc(a1-3)]GlcNAc(b1-3)Gal(b1-4)[Fuc(a1-3)]GlcNAc
# Method in brief: as §1
# [36] = target: Fuc(a1-2)Gal(b1-4)[Fuc(a1-3)]GlcNAc(b1-3)Gal(b1-4)[Fuc(a1-3)]GlcNAc(b1-3)Gal(b1-4)[Fuc(a1-3)]GlcNAc
# Method in brief: as §1
# [37] = target: Fuc(a1-2)Gal(b1-4)[Fuc(a1-3)]GlcNAc(b1-3)GalNAc
# Method in brief: as §1
# [38] = target: Fuc(a1-2)Gal(b1-4)[Fuc(a1-3)]GlcNAc(b1-3)[Neu5Ac(a2-6)Gal(b1-4)GlcNAc(b1-6)]Gal(b1-4)Glc
# Method in brief: as §1
# [39] = target: Fuc(a1-2)Gal3S(b1-4)GlcNAc
# Method in brief: as §1
binder,measurement,setting,value
CvGal2 (Crassostrea virginica) (protein) MGSSHHHHHHSSGLVPRGSHMRIREAGKRKDTTKVYQIPDGLFPGQQVMLRGRVPWGSKSFSINFSATPRMGEGDILFHLNPRPSEGVCIRNALLNGSWGAEEKWQPYFPFDDGRSFSVKIEVTNDAFRTFVNGRPFVDFLHRTDFRAGKYLTLREGAEYYDVIFQSKPNIPLTTAIHNGMRIGKTIRIRGMCTAQDGFAINFNDNRNNIYFHFNARPAQRTVVRNSYFGSWGNEETAISKEFPFYPFLYFYASFVCMEDKFAVYVNDEHFIDFAHRGNPNNISVLQIKGSVNVLDTECLEPMGEDAMTEVDSGLENGDLFVLNGLMTERGKTFAVNFLNGFTENDDIALHFNPRKSTGEVVLNSRYGGAWQSEEKVALPGVFWSNRPLQVKVETKRNKFKIYVNGVDLAKYKIRGNVEDVHAVQVKGDVFLLETLLLKRLMKPVWERLTGGIRPGTWVTLQGTPKKNWQQFVVNFALDDTLDGDIAFHFNVRRGARQVVRNHRQSGAWGREETVTPFFAFDSEATFEIVFFVKEEKFLIYFNGKLFFEFVHRVPVERITHIYMDGDCNFYEPEVVI,glycan array binding signal (z-score),Fuc(a1-2)Gal,-0.31
same,glycan array binding signal (z-score),Fuc(a1-2)Gal(b1-3)GalNAc,-0.341
same,glycan array binding signal (z-score),[1],1.62
same,glycan array binding signal (z-score),[2],4.44
same,glycan array binding signal (z-score),[3],-0.32
same,glycan array binding signal (z-score),[4],-0.332
same,glycan array binding signal (z-score),[5],-0.326
same,glycan array binding signal (z-score),Fuc(a1-2)Gal(b1-3)GlcNAc,0.888
same,glycan array binding signal (z-score),[6],1.73
same,glycan array binding signal (z-score),[7],-0.154
same,glycan array binding signal (z-score),[8],1.09
same,glycan array binding signal (z-score),[9],0.24
same,glycan array binding signal (z-score),[10],0.977
same,glycan array binding signal (z-score),[11],2.27
same,glycan array binding signal (z-score),[12],0.052
same,glycan array binding signal (z-score),[13],2.9
same,glycan array binding signal (z-score),[14],-0.335
same,glycan array binding signal (z-score),[15],-0.331
same,glycan array binding signal (z-score),[16],-0.332
same,glycan array binding signal (z-score),[17],-0.336
same,glycan array binding signal (z-score),[18],-0.314
same,glycan array binding signal (z-score),[19],-0.306
same,glycan array binding signal (z-score),Fuc(a1-2)Gal(b1-4)Glc,0.436
same,glycan array binding signal (z-score),Fuc(a1-2)Gal(b1-4)Glc6S,2.03
same,glycan array binding signal (z-score),Fuc(a1-2)Gal(b1-4)GlcNAc,-0.308
same,glycan array binding signal (z-score),[20],-0.337
same,glycan array binding signal (z-score),[21],1.31
same,glycan array binding signal (z-score),[22],-0.289
same,glycan array binding signal (z-score),[23],0.526
same,glycan array binding signal (z-score),[24],-0.168
same,glycan array binding signal (z-score),[25],0.55
same,glycan array binding signal (z-score),[26],0.07
same,glycan array binding signal (z-score),[27],-0.317
same,glycan array binding signal (z-score),[28],-0.323
same,glycan array binding signal (z-score),[29],0.468
same,glycan array binding signal (z-score),[30],-0.336
same,glycan array binding signal (z-score),[31],-0.269
same,glycan array binding signal (z-score),[32],-0.326
same,glycan array binding signal (z-score),[33],-0.324
same,glycan array binding signal (z-score),[34],-0.324
same,glycan array binding signal (z-score),[35],-0.327
same,glycan array binding signal (z-score),[36],-0.324
same,glycan array binding signal (z-score),[37],-0.326
same,glycan array binding signal (z-score),[38],-0.347
same,glycan array binding signal (z-score),[39],-0.325
